Data reported in PubChem BioAssay AID686971 (National Center for Advancing Translational Sciences (NCATS), 2013).
Among all 360,000 compounds or so, about 7,500 (2.1%) were called active. This list was built around the results that the source calls inconclusive (neither active nor inactive); the mix of calls is not that of the screen. The call rests on the fitted dose curve; in most records, active means well fitted cell-killing curve with a large enough effect; inconclusive means small, poorly fitted or top-dose-only effect, or effect the other way, or another doubt; inactive means no such curve, though single readings can be large or run the other way. No potency is given beside an inconclusive call; the fits are too rough.

Assay: qHTS for induction of synthetic lethality in tumor cells producing 2HG: qHTS for the HT-1080-IDH1KD cell line;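 on activity, negative = toxicity: 0% = DMSO wells and -100% = cell-free medium wells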
Conditions: HT-1080 IDH1 knockdown viability, ATP luminescence, 48 h; activity, negative = toxicity: at 46.1 µM (top of the series) unless noted
Outline: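 Luminescent ATP read-out (CellTiter-Glo, 10 min at room temperature) after 48 h compound exposure at 37 °C gave viability of IDH1-knockdown HT-1080 cells. Activity was normalised to DMSO and cell-free wells, then fitted as concentration-response curves.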
Potency means the concentration at half of the fitted maximal effect; tags describe the fitted curve by direction and shape.

Compound	activity, negative = toxicity	Potency
CCC1=C(OC(=O)N(CC)CC)N2C(=O)OC(=NCC(=O)OC)[C@]2(Cc2ccccc2)[C@H]2C1=CC[C@H]1C(=O)N(CC(=O)OC)C(=O)[C@H]12	inactive: 8.81%	
COc1ccc(NC(=O)C2(C)Cc3c(-c4cccc(C(F)(F)F)c4)ccnc3O2)cc1OC (configuration not stated)		active: 14.6 µM
Cc1ccc(OCc2cc(C(=O)N3CCCC3)no2)cn1	inactive: -1.48%	
Cc1noc(-c2ccc(Cl)cc2)c1C(=O)O/N=C(\N)c1ccc(C(C)(C)C)cc1		inconclusive [cytotoxic, single point]
O=C(NCC1OCCc2ccccc21)c1ccc(NC(=O)c2ccc(Cl)cc2)cc1 (configuration not stated)		inconclusive [cytotoxic, single point]
COc1ccc(OCC(=O)Nc2ccc3c(c2)nc(CCN2CCCCC2)n3C)cc1	inactive: 10.7%	
CCOC(=O)Nc1ccc2c(COC(=O)CNS(=O)(=O)c3ccc(NC(C)=O)cc3)cc(=O)oc2c1		inconclusive [cytotoxic, single point]
O=C(Nc1nnc(-c2ccccc2SCc2ccccc2)s1)Nc1ccccc1F		inconclusive [cytotoxic, partial curve]
O=C(O)CCNc1ccc(NCCC(=O)O)c2c1C(=O)c1ccccc1C2=O		inconclusive [cytotoxic, partial curve]
Clc1cccc(Nc2ncnc3ccc(Br)cc23)c1		inconclusive [cytotoxic, full curve]
CCc1ccc(NC(=O)[C@H](Cc2c[nH]c3ccccc23)NC(=O)[C@@H]2Cc3ccccc3CN2)cc1		inconclusive [cytotoxic, partial curve]
Cc1cc(C)c(S(=O)(=O)c2ccccc2)c(OC(=O)c2c(Cl)cc(Cl)cc2Cl)n1		inconclusive [cytotoxic, single point]
Cc1cc(C(=O)c2ccc(C(C)(C)C)cc2)c(NC(=O)CCl)s1		inconclusive [cytotoxic, single point]
COc1ccc(NC(=O)CN(C)C(=O)c2ccc3ccccc3c2)cc1	inactive: 0.319%	
O=C1c2ccccc2C(c2nnnn2Cc2ccccc2)N1CCc1c[nH]c2ccccc12 (configuration not stated)		inconclusive [cytotoxic, single point]
O=C(NC1CCCC1)C1C(c2ccc(C(F)(F)F)cc2)=Nc2ccccc2N1C(=O)c1cccc(C(F)(F)F)c1 (configuration not stated)	inactive: -15.4%	
COc1cc2c3nnc(-c4ccc(F)cc4)c-3cn(Cc3ccccc3F)c2cc1OC		inconclusive [cytotoxic, single point]
Cc1[nH]n(-c2ccccc2)c(=O)c1N=Nc1ccccc1O		active: 9.2 µM
Nc1ccc(C(=O)OCc2nc3c(ccc4ccccc43)[nH]2)cc1		inconclusive [cytotoxic, partial curve]
O=C1NC[C@@H](CCCCN2C[C@H](Cc3ccccc3)N(CCC3CCCCC3)C(=O)C2=O)N(Cc2ccccc2)C1=O		active: 20.6 µM
Cc1cccc(-n2c(SCC(N)=O)nc3c(c2=O)C2(CCCCC2)Cc2ccccc2-3)c1		inconclusive [cytotoxic, partial curve]
COC(=O)[C@@]12C[C@@H](CC(=O)NCc3cccc(C(F)(F)F)c3)C(=O)N(Cc3ccco3)C1=CCC(C)(C)C2		inconclusive [cytotoxic, single point]
Cc1ccc2[nH]c3c(c2c1)CN(C(=O)CN1CCCc2ccccc21)CC3		active: 23.1 µM

Compound	activity, negative = toxicity	Potency
O=C(CCc1nnc(-c2ccccc2)o1)NCC1CCN(C2CCCC2)CC1	inactive: 2.1%	
COC(=O)c1ccccc1NC(=O)C1CC(c2ccccc2O)=NO1 (configuration not stated)		inconclusive [cytotoxic, single point]
CC(C)CC(C(=O)NC1CCCC1)N(Cc1cccs1)C(=O)c1snc(C(N)=O)c1N (configuration not stated)	inactive: -7.4%	
CCCOc1ccc(C(=O)CCN2CCN(C(=O)OCC)CC2)cc1		inconclusive [cytotoxic, single point]
COC(=O)CSc1nc(C)c(C(=O)Nc2ccccc2C)c(-c2ccc(Cl)cc2)c1C#N	inactive: -4.11%	
c1csc(-c2nc3ccccn3c2NC2CCCCC2)c1		inconclusive [cytotoxic, single point]
CC12CCC(C/C1=N\N=C1\NC(=O)/C(=C\c3ccc(Cl)cc3)S1)C2(C)C (configuration not stated)		active: 20.6 µM
Cc1c(Cl)cccc1NC(=S)N1CCCN(Cc2ccc(F)cc2)C1		inconclusive [cytotoxic, single point]
CCn1c(=O)cc(SCC(=O)NCc2ccco2)c2ccccc21		active: 5.01 µM
Cc1ccc(S(=O)(=O)N/N=C\c2ccccc2OCc2ccccc2)cc1		inconclusive [cytotoxic, single point]
COc1cc(CNCCc2ccc(S(N)(=O)=O)cc2)ccc1OCc1ccc(Cl)cc1		active: 12.6 µM
Cc1nc(-c2cccc(NC(=O)c3ccc(-n4cccn4)cc3)c2)cs1	inactive: -6.76%	
O=C(NCc1ccc(C(F)(F)F)cc1)C1CC(c2c(Cl)cccc2Cl)=NO1 (configuration not stated)	inactive: -1.56%	
COc1cccc(/C=N/Nc2ncccc2[N+](=O)[O-])c1OC		inconclusive [cytotoxic, single point]
CCCc1cc(=O)oc2c(C)c(OCC(=O)Nc3ccc(CN4CCOCC4)cc3)ccc12	inactive: 0%	
COc1cc(OC)c(OC)cc1C=Cc1ccc2ccccc2n1		inconclusive [cytotoxic, single point]
COc1ccccc1NS(=O)(=O)c1cc(N2Cc3ccccc3C2=N)ccc1N1CCOCC1		inconclusive [cytotoxic, single point]
CC(=C/c1ccc(C(C)C)cc1)/C=N/NC(=O)c1ccncc1	inactive: 12.4%	
Clc1ccc(Cn2ncc3c(NCc4ccco4)ncnc32)c(Cl)c1		inconclusive [cytotoxic, single point]
O=[N+]([O-])c1ccc(S(=O)(=O)N2CCN(Cc3ccco3)CC2)cc1	inactive: 11.1%	
CC(=O)c1cccc(NC(=O)C2Cc3c(-c4ccc(Cl)cc4)ccnc3O2)c1 (configuration not stated)		inconclusive [cytotoxic, single point]
O=C1C(Cl)=C(Nc2cccc(O)c2)C(=O)N1Cc1ccccc1		inconclusive [cytotoxic, single point]
CCN(CC)S(=O)(=O)c1ccc(N/N=C(\C)c2ccc3c(c2)OCO3)c([N+](=O)[O-])c1	inactive: 6.02%	

Compound	activity, negative = toxicity	Potency
COc1cc2[nH]c3c(N4CCN(c5ccc(Cl)cc5)CC4)ncnc3c2cc1OC		inconclusive [cytotoxic, single point]
CCOC(=O)N1CCN(C(=O)c2cc3ccc(OC)cc3[nH]2)CC1		inconclusive [rising, single point]
COc1ccc(S(=O)(=O)N2CCN(C/C=C/c3ccccc3)CC2)cc1F	inactive: -2.92%	
COc1cccc(C=NN(C)c2c([N+](=O)[O-])cc(C(F)(F)F)cc2[N+](=O)[O-])c1O		inconclusive [cytotoxic, single point]
O=C(Cc1ccccc1F)Nc1nc(-c2ccc(F)c(F)c2)cs1		inconclusive [cytotoxic, single point]
CC1CC(C)CN(S(=O)(=O)c2ccc(C(=O)Nc3sccc3C(N)=O)cc2)C1 (configuration not stated)		inconclusive [cytotoxic, single point]
CCOC(=O)N1CCC(NC(=O)c2ccc3c(c2)N(Cc2ccc(C)cc2)CCS3)CC1	inactive: -2.3%	
CCOc1ccc2c(c1)C(c1ccc(C)cc1)=NNC(c1ccc(C)cc1)=N2		inconclusive [cytotoxic, single point]
Cc1ccc2ccccc2c1C(O)c1ncc(-c2ccc(C(F)(F)F)cc2)[nH]1 (configuration not stated)		inconclusive [cytotoxic, single point]
COc1cc(C(=O)N(CCN(C)C)CC2CCCN(Cc3ccccc3F)C2)ccc1C (configuration not stated)		inconclusive [cytotoxic, single point]
O=C(CCc1ccccc1)NC1(Cc2ccccc2)CCN(CCCc2ccccc2)C1=O (configuration not stated)		inconclusive [cytotoxic, single point]
COc1ccc(OC)c(-c2cc(C(=O)Nc3c(C)nn(Cc4ccccc4)c3C)no2)c1		inconclusive [cytotoxic, single point]
C(=C\N1CCCCCC1)/c1nnnn1-c1ccc(-c2ccccc2)cc1		inconclusive [cytotoxic, single point]
CCN(CC)S(=O)(=O)c1ccc(NC(=O)COC(=O)CNS(=O)(=O)/C=C/c2ccccc2)cc1	inactive: 0.0973%	
CCCCn1c(N)c(N(CCOC)C(=O)c2cc(C)oc2C)c(=O)[nH]c1=O	inactive: -1.85%	
O=C1/C(=C/c2ccccc2F)SC(=S)N1CCC(=O)N1CCCCC1CCO (configuration not stated)		inconclusive [cytotoxic, single point]
CC(=O)c1c(C)[nH]c(C(=O)OCc2nnc(-c3ccc([N+](=O)[O-])cc3)o2)c1C		inconclusive [cytotoxic, single point]
O=C(NC(=S)NCCCN1CCOCC1)c1cccc2ccccc12	inactive: 9.08%	
CC(C)NC(=O)CSc1ccccc1C(=O)NNC(=O)Cn1ccc(C(F)(F)F)n1	inactive: 2.62%	
Cc1cc(C)n(CC(O)Cn2c3ccccc3c3ccccc32)n1 (configuration not stated)		inconclusive [cytotoxic, single point]
COc1ccc(C)cc1Nc1nc(N)c2ccccc2n1		inconclusive [cytotoxic, single point]
